# Assay results as given in PubChem BioAssay AID504706 (National Center for Advancing Translational Sciences (NCATS), 2011).
# Hit rate of the full screen: of about 320,000 compounds, about 200 (0.062%) were called active. Inconclusive means that the source gave no clear call. Such entries were picked first, then a sample of the others. Calls follow the shape of the dose curve; as a rule, active = well fitted activation curve with a large enough effect; inconclusive = small, poorly fitted or top-dose-only effect; inactive = no such curve, though single readings can be large or run the other way. No potency is given beside an inconclusive call; the fits are too rough.
# Experiment: qHTS assay for re-activators of p53 using a Luc reporter; also: nearly all actives have a fitted effect of over 45% in size; as to activity change, positive = activation: % of control where 0% means no effect
# Conditions: H1299 p53-A138V BP100-luciferase reporter, luminescence, 24 h; series mostly up to 92.2 µM; activity change, positive = activation: at the top concentration
# Procedure, shortened: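 H1299 (p53-null), stable ts p53-A138V + BP100-Luc; 1000 cells/well, Opti-MEM/10% FBS; cpd 4 pt, 1:5; 24 h, 37 deg C, 5% CO2; detection reagent 10 min RT; luminescence.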
# Potency is read from the fitted curve at half-maximal effect; tags tell the direction and shape of the fitted curve.
SMILES,Potency,"activity change, positive = activation"
Cc1ccnc(NC(=O)c2ccc([N+](=O)[O-])o2)c1,"inconclusive [activator, single point]",–
CCc1nc2ccc(C(=O)Nc3ccc4c(c3)OCO4)cc2nc1CC,–,inactive: 4.67%
O=C(CSc1nnc2c(n1)[nH]c1ccc(S(=O)(=O)N3CCOCC3)cc12)Nc1ccccc1Cl,–,inactive: -10.3%
O=C(/C=C/c1ccco1)Nc1cccc(NC(=O)/C=C/c2ccco2)n1,"inconclusive [activator, partial curve, poor fit]",–
O=c1onc(-c2cccnc2)n1-c1ccccc1F,–,inactive: -0.633%
CCOC(=O)c1sc(NC(=O)CSc2nccn2C)nc1C,"inconclusive [activator, partial curve, poor fit]",–
Cc1ccc(-n2nc3ccc(N)cc3n2)cc1,"inconclusive [activator, partial curve, poor fit]",–
O=C(C1CCCN(Cc2ccc3c(c2)OCO3)C1)N1CCCC1 (centres undefined),–,inactive: -0.133%
N#C/C(=C\c1ccc(Sc2ccc(Cl)cc2)o1)c1nc2ccccc2[nH]1,–,inactive: 1.56%
Cc1ccc(-c2noc(CN3CCC(C(N)=O)CC3)n2)cc1,"inconclusive [activator, partial curve, poor fit]",–
Cc1onc(-c2ccccc2)c1C(=O)Nc1nc(-c2cc(F)ccc2F)cs1,"inconclusive [activator, partial curve, poor fit]",–
O=C(N/N=C\c1ccc([N+](=O)[O-])s1)C1COc2ccccc2O1 (centres undefined),"inconclusive [activator, partial curve, poor fit]",–
Cc1ccn2c(c1)nc(=S)n2C(=O)c1ccco1,"inconclusive [activator, partial curve, poor fit]",–
Cc1occc1C(=O)N/N=C/c1cccc2ccccc12,"inconclusive [activator, partial curve, poor fit]",–
CCOc1ccc(/C=C2/C(=O)N(c3ccc(OC)cc3)C(=S)N2CC(=O)OC)cc1OCC,"inconclusive [activator, partial curve, poor fit]",–
Cc1ccnc(NC(=O)C2COc3ccccc3O2)c1 (centres undefined),"inconclusive [activator, partial curve, poor fit]",–
O=C(CSc1nnc(NC(=O)c2cccc(F)c2)s1)NC1CCCC1,–,inactive: 14.9%
O=C(NCCN1C(=O)S/C(=C\c2ccccc2)C1=O)c1cc(S(=O)(=O)N2CCOCC2)c(Cl)cc1Cl,–,inactive: -8.64%
O=C(CSc1nnnn1C1CCCC1)N1CCCCC1,"inconclusive [activator, full curve, poor fit]",–
